# Data taken from PubChem BioAssay AID488969 (Vanderbilt High Throughput Screening Facility, 2010).
# The full ranking holds about 110,000 compounds; the median of “z-score” is about -0.1, and the highest 2% start at about 2. This is one part of the list. The source made the active and inactive calls.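 The calls were made as follows: active = z-score in the third read window above 3 or below -3; inactive = the rest.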
# Biological target: Metabotropic glutamate receptor 8 (Rattus norvegicus) (UniProt P70579)
# Chain of UniProt P70579 (P70579 whole entry, looked up): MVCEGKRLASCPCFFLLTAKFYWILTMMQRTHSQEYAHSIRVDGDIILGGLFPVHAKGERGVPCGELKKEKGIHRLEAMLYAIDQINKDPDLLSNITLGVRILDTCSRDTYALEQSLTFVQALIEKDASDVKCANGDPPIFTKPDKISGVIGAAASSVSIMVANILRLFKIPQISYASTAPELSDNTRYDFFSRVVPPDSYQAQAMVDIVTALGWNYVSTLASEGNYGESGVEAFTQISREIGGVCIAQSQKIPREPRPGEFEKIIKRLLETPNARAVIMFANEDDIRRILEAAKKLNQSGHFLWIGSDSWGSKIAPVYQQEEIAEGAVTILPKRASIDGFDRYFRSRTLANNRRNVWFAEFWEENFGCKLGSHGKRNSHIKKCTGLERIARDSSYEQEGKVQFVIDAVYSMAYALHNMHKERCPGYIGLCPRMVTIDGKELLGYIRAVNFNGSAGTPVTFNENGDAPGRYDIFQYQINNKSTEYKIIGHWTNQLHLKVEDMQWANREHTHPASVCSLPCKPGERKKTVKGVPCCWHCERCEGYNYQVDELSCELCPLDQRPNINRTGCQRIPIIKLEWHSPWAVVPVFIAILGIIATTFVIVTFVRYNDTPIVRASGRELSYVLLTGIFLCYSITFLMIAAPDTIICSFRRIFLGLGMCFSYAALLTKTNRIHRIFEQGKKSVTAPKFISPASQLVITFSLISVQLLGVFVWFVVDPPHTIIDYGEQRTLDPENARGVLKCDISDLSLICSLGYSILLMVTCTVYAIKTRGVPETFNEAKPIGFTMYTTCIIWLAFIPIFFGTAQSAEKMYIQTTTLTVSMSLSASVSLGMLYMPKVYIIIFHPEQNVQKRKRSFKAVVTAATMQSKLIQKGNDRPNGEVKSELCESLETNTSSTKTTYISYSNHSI
# Test: mGluR8 Gi/Go-coupled signaling modulation – cell-based, rat, thallium flux, HTS, primary screen (AID 488969)
# Conditions: HEK293 rat mGluR8, GIRK (G protein-gated inwardly rectifying potassium channel) thallium flux, FluoZin2; at 10 µM; stronger effect = higher value; submaximal glutamate (EC20) added with thallium
row,SMILES,z-score
1,C=CCn1c(SCC(=O)Nc2cc(C)on2)nc2sc(CC)cc2c1=O,-0.296
2,CCCCOC(=O)C1=C(C)Nc2nnnn2C1c1ccc(OC)c(OC)c1OC (centres undefined),-0.468
3,COc1ccccc1NC(=S)N(Cc1ccco1)Cc1cc2cccc(C)c2[nH]c1=O,-0.245
4,O=C1C(Cc2cccc([N+](=O)[O-])c2)SC(=Nc2ccccc2)N1c1ccccc1 (centres undefined),-0.396
5,O=C(c1ccccn1)c1conc1C(=O)c1ccc(Br)cc1,-0.238
6,O=C(Nc1ccnc(-c2cccnc2)n1)c1cccc(Cl)c1Cl,-0.71
7,COc1cccc(/C=N/NC(=O)c2cccc([N+](=O)[O-])c2)c1OS(=O)(=O)c1ccccc1,-0.638
8,CCCc1nc2ccccc2c(C(=O)OCC(=O)NCc2ccc3c(c2)OCO3)c1CC,-0.306
9,COc1ccc(C2C=C(c3ccccc3)Nc3nnnn32)cc1 (centres undefined),-0.00589
10,CCC(=O)N1CCN(c2ccccc2NC(=O)COc2ccccc2Cl)CC1,-1.24
11,CCc1noc(C)c1C(=O)Nc1nc(-c2ccc(Cl)cc2Cl)cs1,-0.135
12,O=C(NC1CCCCCC1)c1nc2ncccn2n1,0.723
13,CN(C)S(=O)(=O)Nc1ccc(NS(=O)(=O)N(C)C)c(S(=O)(=O)c2ccccc2)c1,-0.106
14,O=C1[C@@H]2[C@H](C(=O)N1O)[C@H]1C=C[C@@H]2C1,-0.447
15,NS(=O)(=O)c1ccc(CNC(=O)C23CC4CC(CC(C4)C2)C3)cc1,0.404
16,CC(=O)c1cc(F)c(N2CCN(CCC#N)CC2)cc1C,0.142
17,Cc1noc(C)c1C(=O)OCC(=O)c1cc(C)n(Cc2ccccc2Cl)c1C,-0.108
18,COC(=O)c1ncccc1SC,-0.0754
19,CCOC(=O)c1cn(Cc2ccc(Br)cc2)nn1,0.0601
20,COC(=O)c1ccccc1NC(=O)Cn1nnc(-c2ccc(OC)cc2)n1,-0.0245
21,Cc1cc(C(F)(F)F)nn1CC(=O)N1CCOCC1,-0.0383
22,COC(=O)c1ccccc1NC(=S)NC(=O)c1ccccc1,active: 13.1
23,CCc1cc(=O)oc2cc3oc(C)c(C)c3cc12,-0.296

row,SMILES,z-score
1,Cc1cc(C)nc(N2C(=O)CC(Cc3ccccc3)C2=O)n1 (centres undefined),0.422
2,CCCCNC(=S)NNC(=O)c1csc(C)c1C,0.0325
3,CC1(C(=O)NC2CCCCCCC2)CCC(=O)N1Cc1cccnc1 (centres undefined),-0.154
4,CC1(C)CC(=O)C=C(Nc2ccc(OCC(F)(F)C(F)F)cc2)C1,0.523
5,CCN(CC)C(=O)C1CCCN(c2ccc([N+](=O)[O-])cc2/C=N/NC(=O)c2ccc([N+](=O)[O-])cc2)C1 (centres undefined),-1.4
6,COc1cc(-c2cc3nc(C)c(C)c(=O)n3[nH]2)cc(OC)c1OC,2.19
7,COC(=O)c1c(C(=O)OC)c2ccncn2c1Cl,0.148
8,Cc1nc2ccccc2c(=O)n1NC(=O)c1ccco1,-0.0351
9,CCOC(=O)c1ccc(COC(=O)c2cc3ccccc3oc2=O)o1,-1.71
10,CCN(CC)S(=O)(=O)c1ccc(Cl)c(NC(=O)c2ccc(C#N)cc2)c1,-0.194
11,Nc1nc(SCc2ccccc2)ns1,0.245
12,COc1ccc(C(C(=O)NC(C)(C)C)N(Cc2ccco2)C(=O)CCC(=O)Nc2cc(C)on2)cc1 (centres undefined),-0.0039
13,CCC(C)[C@H](NC(=O)NCc1ccc(Cl)cc1)C(=O)OC (some centres undefined),-0.377
14,O=C(OCc1nnc(-c2ccccc2)o1)c1ccco1,-1.24
15,CC(C)(C)c1ccc(S(=O)(=O)NCC(=O)N2CCN(C(=O)c3ccco3)CC2)cc1,-0.0781
16,Cc1c(Cl)cccc1NC(=S)NCc1ccccc1Cl,0.101
17,COc1ccc(NC(=O)C2CC(=O)OC23CCOC(C)(C)C3)cc1 (centres undefined),0.397
18,COc1ccc(S(=O)(=O)N(CC(=O)N2CCN(C)CC2)C2CCCCC2)cc1OC,1.28
19,CCCCCCNC(=O)c1c(N)n(/N=C/c2ccco2)c2nc3ccccc3nc12,-0.0764
20,Cc1nc2sc(C(c3ccccc3)N3CCOCC3)c(O)n2n1 (centres undefined),0.0911
21,CCOc1cc(S(=O)(=O)NC2CCCC2)ccc1Cl,0.424
22,CNC(=O)CN(c1ccc2c(c1)OCCO2)S(C)(=O)=O,-0.0586
23,O=C(c1ccco1)N1CCN(S(=O)(=O)c2ccc3c(c2)CCN3C(=O)C2CC2)CC1,-0.077

row,SMILES,z-score
1,CCCn1nc2cc(C(=O)NCc3ccccc3OC)ccc2c1OCC,-0.367
2,CCOC(=O)c1cnc2ccc(OCC)cc2c1N1CCN(c2ccccc2)CC1,0.111
3,O=C(NC(=S)NCCC1=CCCCC1)c1cncc(Br)c1,1.85
4,COCCCN(C(=S)NC(=O)c1ccc(C(C)(C)C)cc1)c1c(N)n(Cc2ccccc2)c(=O)[nH]c1=O,-0.0611
5,CCOC(=O)N1CCN(C(=O)C2COc3ccccc3O2)CC1 (centres undefined),0.212
6,COC(=O)c1ccc(CSc2nnnn2Cc2ccccc2)cc1,-0.989
7,N#Cc1ccccc1-n1c(N)c(C(=O)N2CCCC2)sc1=S,0.327
8,COc1ccc(-n2c(SCc3ccc([N+](=O)[O-])cc3)nnc2-c2ccc(C)cc2)cc1,-0.158
9,CSc1nc2ccc(S(=O)(=O)N(C)C)cc2s1,-0.547
10,O=S(=O)(NCC1CCCO1)c1ccc2oc3ccc(S(=O)(=O)NCC4CCCO4)cc3c2c1 (centres undefined),-1.32
11,Cc1ccc2nsnc2c1S(=O)(=O)Nc1cccc2nsnc12,active: 14.7
12,COc1ccc(C(C(=O)NC2CCCC2)N(C(=O)c2ccco2)c2ccc(OC)c(OC)c2)cc1 (centres undefined),-0.241
13,Cc1cc(C(=O)COC(=O)CC2Sc3ccccc3NC2=O)c(C)n1-c1ccc(Br)cc1 (centres undefined),-0.0506
14,CCCCNC(=S)N/N=C/c1ccc(OCC(=O)Nc2c(C)cc(C)cc2C)c(OC)c1,0.0537
15,CCCCNC(=O)CSc1nc2ccccc2c(=O)n1CC1COc2ccccc2O1 (centres undefined),0.221
16,Fc1cccc(CN2CCN3CCCC3C2C2CCCCC2)c1 (centres undefined),-0.0575
17,CC/C(C)=C1\SC(N2CCN(c3cccc(C(F)(F)F)c3)CC2)=NC1=O,-0.597
18,COC(=O)c1cc(-c2cccc(OC)c2)on1,-1.1
19,CCC(C)c1ccc(NC(=S)NC2CCN(Cc3ccccc3)CC2)cc1 (centres undefined),0.612
20,O=C(COC(=O)CCNS(=O)(=O)c1ccc(Cl)cc1)NCc1ccco1,-0.456
21,c1ccc2c(c1)[nH]c1c(N3CCC4(CC3)OCCO4)ncnc12,0.259
22,Cc1cc(C(=O)CSc2nnc(Nc3ccccc3)s2)c(C)n1CC1CCCO1 (centres undefined),0.0904
23,COC(=O)c1c(NC(=O)CSc2nnc(-c3cccnc3)n2Cc2ccco2)sc(C)c1C,-1.31
